# Test results from the supplement of paper PMC8728848.
# The list shows a part of the results.
# What was measured:
# Assay in all cases: glycan array binding signal (z-score within array); higher = stronger binding
# Details in all cases: glycan notation: IUPAC condensed, linker removed
# Gal(b1-3)GalNAc(b1-3)Gal = molecular target: Gal(b1-3)GalNAc(b1-3)Gal
# Method in brief: (§1)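 Glycan array data were curated from 3228 arrays in the Consortium for Functional Glycomics database and kept only where the protein sequence was available. Glycan names were converted to IUPAC-condensed notation, and columns mapping to the same glycan were averaged. The binding signal is a within-array Z-score, averaged across arrays of the same protein sequence at different concentrations or buffers and across linkers. Negative Z-scores can be read as non-binding.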
# [1] = molecular target: Gal(b1-3)GalNAc(b1-3)Gal(a1-4)Gal(b1-4)Glc
# Method in brief: as §1
# [2] = molecular target: Gal(b1-3)GalNAc(b1-4)Gal(b1-4)Glc
# Method in brief: as §1
# [3] = molecular target: Gal(b1-3)GalNAc(b1-4)[Neu5Ac(a2-3)]Gal(b1-4)Glc
# Method in brief: as §1
# Gal(b1-3)GlcNAc = molecular target: Gal(b1-3)GlcNAc
# Method in brief: as §1
# [4] = molecular target: Gal(b1-3)GlcNAc(a1-3)Gal(b1-4)GlcNAc
# Method in brief: as §1
# [5] = molecular target: Gal(b1-3)GlcNAc(a1-6)Gal(b1-4)GlcNAc
# Method in brief: as §1
# Gal(b1-3)GlcNAc(b1-2)Man = molecular target: Gal(b1-3)GlcNAc(b1-2)Man
# Method in brief: as §1
# [6] = molecular target: Gal(b1-3)GlcNAc(b1-2)Man(a1-3)[Gal(b1-3)GlcNAc(b1-2)Man(a1-6)]Man(b1-4)GlcNAc(b1-4)GlcNAc
# Method in brief: as §1
# [7] = molecular target: Gal(b1-3)GlcNAc(b1-2)Man(a1-3)[Gal(b1-3)GlcNAc(b1-2)Man(a1-6)]Man(b1-4)GlcNAc(b1-4)[Fuc(a1-6)]GlcNAc
# Method in brief: as §1
# [8] = molecular target: Gal(b1-3)GlcNAc(b1-2)Man(a1-3)[GlcNAc(b1-4)][Gal(b1-3)GlcNAc(b1-2)Man(a1-6)]Man(b1-4)GlcNAc(b1-4)GlcNAc
# Method in brief: as §1
# [9] = molecular target: Gal(b1-3)GlcNAc(b1-2)[Gal(b1-3)GlcNAc(b1-6)]Man(a1-6)[Gal(b1-3)GlcNAc(b1-2)Man(a1-3)]Man(b1-4)GlcNAc(b1-4)GlcNAc
# Method in brief: as §1
# [10] = molecular target: Gal(b1-3)GlcNAc(b1-3)Gal(b1-3)GlcNAc
# Method in brief: as §1
# [11] = molecular target: Gal(b1-3)GlcNAc(b1-3)Gal(b1-4)Glc
# Method in brief: as §1
# [12] = molecular target: Gal(b1-3)GlcNAc(b1-3)Gal(b1-4)GlcNAc
# Method in brief: as §1
# [13] = molecular target: Gal(b1-3)GlcNAc(b1-3)Gal(b1-4)GlcNAc(b1-2)Man(a1-3)[Gal(b1-3)GlcNAc(b1-3)Gal(b1-4)GlcNAc(b1-2)Man(a1-6)]Man(b1-4)GlcNAc(b1-4)GlcNAc
# Method in brief: as §1
# [14] = molecular target: Gal(b1-3)GlcNAc(b1-3)Gal(b1-4)GlcNAc(b1-2)[Gal(b1-3)GlcNAc(b1-3)Gal(b1-4)GlcNAc(b1-6)]Man(a1-6)[Gal(b1-3)GlcNAc(b1-3)Gal(b1-4)GlcNAc(b1-2)Man(a1-3)]Man(b1-4)GlcNAc(b1-4)[Fuc(a1-6)]GlcNAc
# Method in brief: as §1
# [15] = molecular target: Gal(b1-3)GlcNAc(b1-3)Gal(b1-4)GlcNAc(b1-3)Gal(b1-4)GlcNAc(b1-2)[Gal(b1-3)GlcNAc(b1-3)Gal(b1-4)GlcNAc(b1-3)Gal(b1-4)GlcNAc(b1-6)]Man(a1-6)[Gal(b1-3)GlcNAc(b1-3)Gal(b1-4)GlcNAc(b1-3)Gal(b1-4)GlcNAc(b1-2)Man(a1-3)]Man(b1-4)GlcNAc(b1-4)[Fuc(a1-6)]GlcNAc
# Method in brief: as §1
# [16] = molecular target: Gal(b1-3)GlcNAc(b1-3)Gal(b1-4)GlcNAc(b1-6)[Gal(b1-3)GlcNAc(b1-3)]Gal(b1-4)Glc
# Method in brief: as §1
# [17] = molecular target: Gal(b1-3)GlcNAc(b1-3)Gal(b1-4)[Fuc(a1-3)]GlcNAc
# Method in brief: as §1
# [18] = molecular target: Gal(b1-3)GlcNAc(b1-3)Gal(b1-4)[Fuc(a1-3)]GlcNAc(b1-6)[Gal(b1-3)GlcNAc(b1-3)]Gal(b1-4)Glc
# Method in brief: as §1
# [19] = molecular target: Gal(b1-3)GlcNAc(b1-3)GalNAc
# Method in brief: as §1
# [20] = molecular target: Gal(b1-3)GlcNAc(b1-6)Gal(b1-4)GlcNAc
# Method in brief: as §1
# [21] = molecular target: Gal(b1-3)GlcNAc(b1-6)GalNAc
# Method in brief: as §1
# [22] = molecular target: Gal(b1-3)GlcNAc(b1-6)[Gal(b1-3)]GalNAc
# Method in brief: as §1
# Gal(b1-3)GlcNAc6S = molecular target: Gal(b1-3)GlcNAc6S
# Method in brief: as §1
# [23] = molecular target: Gal(b1-3)[Fuc(a1-4)]GlcNAc
# Method in brief: as §1
# [24] = molecular target: Gal(b1-3)[Fuc(a1-4)]GlcNAc(b1-2)Man
# Method in brief: as §1
# [25] = molecular target: Gal(b1-3)[Fuc(a1-4)]GlcNAc(b1-2)Man(a1-3)[Gal(b1-3)[Fuc(a1-4)]GlcNAc(b1-2)Man(a1-6)]Man(b1-4)GlcNAc(b1-4)[Fuc(a1-6)]GlcNAc
# Method in brief: as §1
# [26] = molecular target: Gal(b1-3)[Fuc(a1-4)]GlcNAc(b1-3)Gal(b1-3)[Fuc(a1-4)]GlcNAc
# Method in brief: as §1
# [27] = molecular target: Gal(b1-3)[Fuc(a1-4)]GlcNAc(b1-3)Gal(b1-4)[Fuc(a1-3)]GlcNAc
# Method in brief: as §1
# [28] = molecular target: Gal(b1-3)[Fuc(a1-4)]GlcNAc(b1-6)GalNAc
# Method in brief: as §1
# [29] = molecular target: Gal(b1-3)[GlcNAc(b1-6)]GalNAc
# Method in brief: as §1
# [30] = molecular target: Gal(b1-3)[Neu5Ac(a2-6)]GalNAc
# Method in brief: as §1
# [31] = molecular target: Gal(b1-3)[Neu5Ac(a2-6)]GlcNAc(b1-4)Gal(b1-4)Glc
# Method in brief: as §1
# [32] = molecular target: Gal(b1-3)[Neu5Ac(b2-6)]GalNAc
# Method in brief: as §1
# Gal(b1-4)Gal = molecular target: Gal(b1-4)Gal
# Method in brief: as §1
# [33] = molecular target: Gal(b1-4)GalNAc(a1-3)[Fuc(a1-2)]Gal(b1-4)GlcNAc
# Method in brief: as §1
binder,measurement,setting,value
"Apa (Mycobacterium tuberculosis), Rv1860 (protein) MHQVDPNLTRRKGRLAALAIAAMASASLVTVAVPATANADPEPAPPVPTTAASPPSTAAAPPAPATPVAPPPPAAANTPNAQPGDPNAAPPPADPNAPPPPVIAPNAPQPVRIDNPVGGFSFALPAGWVESDAAHFDYGSALLSKTTGDPPFPGQPPPVANDTRIVLGRLDQKLYASAEATDSKAAARLGSDMGEFYMPYPGTRINQETVSLDANGVSGSASYYEVKFSDPSKPNGQIWTGVIGSPAANAPDAGPPQRWFVVWLGTANNPVDKGAAKALAESIRPLVAPPPAPAPAPAEPAPAPAPAGEVAPTPTTPTPQRTLPA",glycan array binding signal (z-score),Gal(b1-3)GalNAc(b1-3)Gal,-0.381
same,glycan array binding signal (z-score),[1],-0.018
same,glycan array binding signal (z-score),[2],-0.254
same,glycan array binding signal (z-score),[3],-0.504
same,glycan array binding signal (z-score),Gal(b1-3)GlcNAc,-0.057
same,glycan array binding signal (z-score),[4],0.158
same,glycan array binding signal (z-score),[5],0.788
same,glycan array binding signal (z-score),Gal(b1-3)GlcNAc(b1-2)Man,2.77
same,glycan array binding signal (z-score),[6],-0.376
same,glycan array binding signal (z-score),[7],-0.23
same,glycan array binding signal (z-score),[8],0.089
same,glycan array binding signal (z-score),[9],0.06
same,glycan array binding signal (z-score),[10],-0.31
same,glycan array binding signal (z-score),[11],-0.5
same,glycan array binding signal (z-score),[12],-0.186
same,glycan array binding signal (z-score),[13],-0.122
same,glycan array binding signal (z-score),[14],0.082
same,glycan array binding signal (z-score),[15],0.279
same,glycan array binding signal (z-score),[16],-0.185
same,glycan array binding signal (z-score),[17],0.117
same,glycan array binding signal (z-score),[18],-0.365
same,glycan array binding signal (z-score),[19],-0.447
same,glycan array binding signal (z-score),[20],-0.304
same,glycan array binding signal (z-score),[21],-0.451
same,glycan array binding signal (z-score),[22],-0.074
same,glycan array binding signal (z-score),Gal(b1-3)GlcNAc6S,-0.259
same,glycan array binding signal (z-score),[23],-0.388
same,glycan array binding signal (z-score),[24],1.49
same,glycan array binding signal (z-score),[25],-0.158
same,glycan array binding signal (z-score),[26],-0.052
same,glycan array binding signal (z-score),[27],0.702
same,glycan array binding signal (z-score),[28],-0.162
same,glycan array binding signal (z-score),[29],-0.214
same,glycan array binding signal (z-score),[30],-0.007
same,glycan array binding signal (z-score),[31],-0.581
same,glycan array binding signal (z-score),[32],-0.114
same,glycan array binding signal (z-score),Gal(b1-4)Gal,-0.51
same,glycan array binding signal (z-score),[33],-0.467
